Measured values from PMC4336329 (PLoS ONE, 2015).
About 14,000 (4.5%) of roughly 310,000 compounds showed an effect of 50% or more. Effects have a minus sign here. Some of the results follow.

The compounds below were run against human ether-à-go-go-related gene (hERG) potassium channel (human, UniProt Q12809) (assay: primary screen, population patch clamp on CHO cells stably expressing hERG).
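Also: peak tail current of the secondary pulse compared with the same well before compound.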

Sequence of human ether-à-go-go-related gene (hERG) potassium channel (Q12809 whole entry, looked up): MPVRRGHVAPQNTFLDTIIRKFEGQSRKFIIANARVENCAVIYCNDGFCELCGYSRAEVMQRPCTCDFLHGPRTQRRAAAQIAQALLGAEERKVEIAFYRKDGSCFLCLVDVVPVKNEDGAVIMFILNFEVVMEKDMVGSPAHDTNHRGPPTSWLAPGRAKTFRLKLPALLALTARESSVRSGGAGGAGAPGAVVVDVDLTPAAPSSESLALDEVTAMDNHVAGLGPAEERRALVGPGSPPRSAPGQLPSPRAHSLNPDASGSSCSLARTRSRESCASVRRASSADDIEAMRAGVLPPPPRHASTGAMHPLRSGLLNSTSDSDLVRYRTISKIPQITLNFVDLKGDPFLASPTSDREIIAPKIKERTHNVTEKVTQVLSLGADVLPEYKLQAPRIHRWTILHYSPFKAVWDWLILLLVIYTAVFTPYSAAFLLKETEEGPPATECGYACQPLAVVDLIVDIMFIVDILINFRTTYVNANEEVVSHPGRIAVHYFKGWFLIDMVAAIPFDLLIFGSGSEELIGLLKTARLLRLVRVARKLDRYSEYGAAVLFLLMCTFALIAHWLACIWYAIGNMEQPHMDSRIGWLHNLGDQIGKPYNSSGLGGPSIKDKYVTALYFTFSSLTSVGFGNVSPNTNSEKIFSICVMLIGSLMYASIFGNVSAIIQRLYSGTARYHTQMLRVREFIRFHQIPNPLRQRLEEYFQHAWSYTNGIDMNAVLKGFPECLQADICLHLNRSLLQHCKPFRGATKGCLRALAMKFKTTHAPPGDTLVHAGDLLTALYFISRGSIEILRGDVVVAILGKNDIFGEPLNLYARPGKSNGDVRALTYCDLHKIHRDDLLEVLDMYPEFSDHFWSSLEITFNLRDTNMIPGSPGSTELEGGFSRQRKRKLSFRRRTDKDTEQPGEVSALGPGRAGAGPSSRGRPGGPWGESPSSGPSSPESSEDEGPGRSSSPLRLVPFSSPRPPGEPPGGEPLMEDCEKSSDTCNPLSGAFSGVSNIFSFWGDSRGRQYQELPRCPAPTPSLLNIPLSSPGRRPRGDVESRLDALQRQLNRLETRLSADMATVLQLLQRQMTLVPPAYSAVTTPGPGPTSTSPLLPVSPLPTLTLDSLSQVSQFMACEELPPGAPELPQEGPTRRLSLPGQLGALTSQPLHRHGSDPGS

| Compound | hERG current change (%, negative = inhibition) at 10uM [%] |
| --- | --- |
| CCn1ccc(C(=O)Nc2ncc(C)s2)n1 | 3.3 |
| CCOC(=O)C1=C(O)C(=O)N(C2CCCCC2)C1 | 6.01 |
| COC(=O)c1ccc(NC(=O)C2CC3CCC2C3)cc1 (stereo not drawn) | -6.77 |
| CCOC(=O)C1=C(N)OC2=C(C(=O)CCC2)C12C(=O)Nc1ccccc12 (stereo not drawn) | -6.27 |
| CC(=O)Nc1ccc(S(=O)(=O)N2CCC(C(=O)O)CC2)cc1 | 6.74 |
| CN1C(=O)C(O)N=C(c2ccccc2)c2ccccc21 (stereo not drawn) | 5.26 |
| CC(Oc1ccc2c(-c3ccccc3)cc(=O)oc2c1)C(=O)N1CCC[C@@H]1C(N)=O (stereo partly drawn) | 1.14 |
| Clc1nc2ccccc2cc1-c1nnn(-c2ccccc2Br)n1 | -2.47 |
| CSc1ccc(/C=N/NC(=O)CN2CCN(Cc3ccc(Cl)cc3)CC2)cc1 | -35.1 |
| O=C(Oc1cccc(-n2cnnn2)c1)c1ccco1 | 6.57 |
| CCOC(=O)c1c(NC(=O)CSc2nnc(C)s2)sc2c1CCC(CC)C2 (stereo not drawn) | 6.07 |
| O=C(C[n+]1cccc(Br)c1)c1ccccc1.[Br-] | 11.7 |
| CCn1c(=O)c(=O)n(CC)c2cc(S(=O)(=O)N3CCc4ccccc43)ccc21 | -28.9 |
| COc1ccc(-c2c(C#N)c(SCc3c(C)noc3C)nc3c2C(=O)CC(C)(C)C3)cc1 | 5.46 |
| Nc1nc(-c2ccc(Oc3ccccc3)cc2)c(CC(=O)O)s1 | 9.12 |
| COc1cc(/C=C2\SC(N)=NC2=O)cc(Br)c1O | 7.66 |
| C=CCn1c2[n+](c3ccccc3c1=O)CCCCC2.[I-] | -3.03 |
| N=c1c(S(=O)(=O)c2ccccc2)cc2c(=O)n3ccccc3nc2n1CCCN1CCOCC1 | -65.9 |
| Cc1ccc(C)c(N2CCN(C(=O)c3ccc(CS(=O)(=O)c4ccccc4C)o3)CC2)c1 | -25.5 |
| Cc1nc2c(sc(=S)n2Cc2ccco2)c(=O)n1CC(=O)Nc1cc(F)ccc1F | 13.2 |

| Compound | hERG current change (%, negative = inhibition) at 10uM [%] |
| --- | --- |
| Cc1cc(C)nc(NC(=O)Cc2cccs2)n1 | 0.474 |
| CC1CCN(CCCCOc2ccc(Br)cc2)CC1 | -69.4 |
| CCOC(=O)c1cnc2cc(C)nn2c1C | -7.37 |
| Cc1ccc(C(=O)Nc2cc3c(cc2N2CCCCC2)n(C)c(=O)n3C)cc1 | 11.8 |
| CCc1nc(Nc2ccncc2)c2oc3ccccc3c2n1.Cl | -58.5 |
| CCCc1cc(=O)[nH]c(SCC(=O)N(Cc2ccccc2)C(C)C)n1 | 26.8 |
| Cc1ccc(O)c(CC(C)C)n1 | 7.01 |
| COCCCNC(=O)c1ccc(CS(=O)(=O)c2ccccc2C)o1 | 7.74 |
| O=C(NCc1ccccc1)C1CCCN(S(=O)(=O)c2ccc(-n3cnnn3)cc2)C1 (stereo not drawn) | 2.94 |
| C=CCn1c(O)c(C(CC)=Nc2cccc(C(=O)O)c2)c(=O)[nH]c1=O | 11.6 |
| CC1CCN(S(=O)(=O)c2ccc(C(=O)N3CCOCC3)cc2)CC1 | 5.78 |
| C/C(N)=C(/C#N)C(=O)COC(=O)c1cc2c(s1)CCC(C)C2 (stereo not drawn) | 9.17 |
| O=C(/C=C1\SC(=O)N(CC(=O)Nc2ccc(F)cc2)C1=O)Nc1ccc(Cl)cc1 | 10.8 |
| CCN1C(=O)CS/C1=N\c1nccs1 | 6.88 |
| Cc1cccc(NS(=O)(=O)c2ccc(C(=O)NCCCN3CCOCC3)cc2)c1C | -15.6 |
| CCCc1ccc(S(=O)(=O)N2CCN(Cc3ccco3)CC2)cc1 | -38.6 |
| CN(C)C(=O)NC1CCCCCCCCCCC1 | -5.65 |
| CCOCCCNC(=O)CS(=O)(=O)Cc1nc(-c2cccc(OC)c2)oc1C | -2.06 |
| O=C(CCc1ccccc1)NNC(=S)NC(=O)c1ccc(Cl)cc1 | 8.15 |
| O=C(O)CCN(Cc1ccccc1)S(=O)(=O)c1ccc(Cl)cc1F | 7.65 |

| Compound | hERG current change (%, negative = inhibition) at 10uM [%] |
| --- | --- |
| Cc1cc(C)n2nc(C(=O)OCC(=O)N(C)C3CCCCC3)nc2n1 | 4.17 |
| CCOC(=O)C1C(C(=O)OCC)C1(c1ccccc1)c1ccccc1 (stereo not drawn) | 0.621 |
| CCN(CC)S(=O)(=O)c1cc(NC(=O)C2=COCCO2)ccc1Cl | -8.41 |
| CC1(C)Cc2c(sc(/N=C/N3CCCC3)c2C#N)C(C)(C)N1 | -19.2 |
| COc1ccccc1OCCSc1nc(C)c(Cc2ccccc2)c(=O)[nH]1 | 22.8 |
| Cc1ccc(-c2csc3ncnc(-n4cnc5ccccc54)c23)cc1 | -25.6 |
| CC(C)(C)c1ccc(S(=O)(=O)NCc2ccc(C(=O)N3CCOCC3)cc2)cc1 | -0.293 |
| Cc1ccc(C)c(NC(=S)NNC(=O)c2csc(C(C)C)c2)c1 | -1.77 |
| COc1ccc(OC)c(NC(=O)C23CC4CC(C2)CC(n2cnc(Br)n2)(C4)C3)c1 | -41.2 |
| Cc1cccc(NC(=S)N/N=C2/CCCCc3ccccc32)c1 | 15.2 |
| COc1ccccc1N1CC(C(=O)Nc2ccc(N3CCOCC3)cc2)CC1=O (stereo not drawn) | 15.1 |
| Cc1cc(=O)oc2cc3c(cc12)OCO3 | 11.8 |
| O=C1CN(C(=O)c2cccc([N+](=O)[O-])c2)CC(=O)N1 | 13.4 |
| Cn1c(NC(=O)/C=C/c2ccccc2)cc(=O)n(C)c1=O | -3.21 |
| Cc1ccc(S(=O)(=O)N2CCOCC2)cc1C(=O)N1CCCCCC1 | -13.4 |
| O=C(O)C=C(Br)Br | 3.44 |
| CNC(=O)c1[nH]cnc1C(=O)Nc1cccc(OC)c1 | 2.87 |
| COc1ccc(C(=O)Nc2ccnc(-c3cccnc3)n2)cc1 | -21.7 |
| c1ccc(CNc2ncnc3nc[nH]c23)cc1 | -4.7 |
| O=c1cc(-c2c(F)c(F)c(F)c(F)c2F)oc2ccccc12 | 17.7 |
